Hit rate of the full screen: of about 52,000 compounds, about 4,300 (8.3%) were called active. No stated cut-off is given here; in the data, active means survival mostly below about 52% (no sharp cut-off); inactive means mostly above about 56%. This is one part of the list.
These compounds were tested on DeltatarO mutant (assay: S. aureus survival, RN4220 and DeltatarO strains – OD600, teichoic acid synthesis inhibitors, primary screen (AID 463173)). Conditions: S. aureus RN4220 wild type/DeltatarO growth, OD600, 18 h, hits give low values, screened at 18.75 µg/mL (by protocol).

Compound | survival
CCc1cccc(C)c1NC(=O)c1cnn(-c2ccc(OC)cc2)c1C1CCN(C(=O)OC(C)(C)C)CC1 | inactive: 85%
COc1ccc(NC(=O)c2nc(-c3ccc(C)cc3)n3c2CCCCC3)c(OC)c1 | inactive: 63%
O=C1OCC2=C1C(c1ccc(F)cc1)Sc1ccccc1N2 (stereo not drawn) | inactive: 88%
CCOCCc1nn2c(=O)cc(COC(=O)c3ccc(NC(=O)C(C)(C)C)cc3)nc2s1 | inactive: 83%
COc1ccc(C(=O)CCC(=O)Nc2ccc(C)c(Cl)c2)cc1 | inactive: 84%
CC1CCCN(CCCNC(=O)c2cc3c(Cl)nc4ccccc4c3s2)C1 (stereo not drawn) | inactive: 125%
CC(=O)Nc1cccc(NC(=O)CCn2cnc3cc(C)c(C)cc32)c1 | inactive: 62%
COc1cc(Cl)c(C)cc1Nc1nc2ccccc2n2cnnc12 | inactive: 117%
Cc1ccc(C2c3[nH]c4ccccc4c3CCN2C(=O)CSCc2ccc(F)cc2)cc1 (stereo not drawn) | inactive: 93%
O=C(NCCc1csc(-c2ccc(F)cc2)n1)c1cccc(F)c1 | inactive: 91%
COc1ccccc1CNC(=O)C1CCN(S(=O)(=O)c2cn(C)cn2)CC1 | active: 0%
CCc1ccccc1N(C)C(=O)c1sc2nc3n(c(=O)c2c1C)CCCCC3 | inactive: 50%
COc1ccc(N2CC(NC(=O)/C=C\c3ccccc3)CC2=O)cc1OC (stereo not drawn) | inactive: 95%
Cc1nn(C)c(C)c1CCNC(=O)Nc1ccccc1C(F)(F)F | active: 6%
CCN(CC)c1nn2c(=O)c(C(=O)NCc3ccc(N(C)C)cc3)cnc2s1 | inactive: 82%
COc1ccc(CNC(=O)Cn2c(-c3ccccc3)cc(C(C)=O)c2C)cc1OC | inactive: 92%
CCC(=O)N1CCc2cc(S(=O)(=O)NC(C(=O)NCCc3cccc(C)c3)C(C)C)ccc21 (stereo not drawn) | inactive: 86%
O=C(NCc1cccs1)c1ccc(CSc2nc3ccncc3n2Cc2ccccc2F)cc1 | inactive: 103%
CC(=O)O/N=C1/CC(C)(C)Cc2onc(C)c21 | inactive: 76%
Cc1ccc(N2CCN(S(=O)(=O)c3ccc(-n4cnnn4)cc3)CC2)c(C)c1 | inactive: 81%

Compound | survival
COc1ccc(-n2c(=O)c3c4c(sc3n(Cc3ccc(C(C)(C)C)cc3)c2=O)CCC4)c(OC)c1 | inactive: 68%
CCn1nnc2cc(C(=O)Nc3ccc(OC)cc3)ccc21 | inactive: 102%
Cc1ccc(Cl)cc1N1CCN(C(=O)c2ccc3c(c2)N(Cc2ccccc2)CCS3)CC1 | inactive: 74%
Cc1ccc(-c2ccc(CCC(=O)O)n2-c2cccc(C)c2C)cc1 | active: 34%
Cc1ccc(C)c(N2CCN(C(=O)CN3C(=O)COc4ccc(S(=O)(=O)N5CCC(C)CC5)cc43)CC2)c1 | inactive: 75%
CCOc1ccc(Br)cc1S(=O)(=O)Nc1cccc(-c2ccc(OC)nn2)c1 | inactive: 84%
COc1ccc(NC(=O)c2c(C)oc3ccc(O)c(CN4CCCCCC4)c23)cc1 | inactive: 104%
c1ccc(N2CCN(Cc3nnnn3Cc3ccc4c(c3)OCO4)CC2)cc1 | inactive: 87%
COCCn1c(C)cc(O)c(C(c2ccc(OC)cc2)N2CCN(c3ccccc3)CC2)c1=O (stereo not drawn) | inactive: 58%
Cc1ccc(C)c(-n2nnc(C(=O)Nc3ccc(Br)cc3)c2C)c1 | active: 18%
CS(=O)(=O)c1cccc(S(=O)(=O)c2cccc(S(C)(=O)=O)c2)c1 | inactive: 81%
COc1ccc(CCNC(=O)c2cc(=O)[nH]c3ccc(S(=O)(=O)N4CCCCC4C)cc23)cc1OC (stereo not drawn) | inactive: 117%
Cc1cn2c(=O)cc(COC(=O)c3ccc(NC(=O)C(C)Oc4ccccc4)cc3)nc2s1 (stereo not drawn) | active: 8%
CCOCCCNC(=O)c1c(NC(=O)c2nc(SC)ncc2Cl)sc2c1CCCC2 | inactive: 64%
Cc1cc(C)nc(Nc2nc3ccccc3c(=O)[nH]2)n1 | active: 74%
O=C1CCCC/C1=C/Nc1ccc2c(c1)OCO2 | inactive: 94%
O=C(Nc1cc(Cl)cc(Cl)c1)c1cc(S(=O)(=O)N2CCC3(CC2)OCCO3)ccc1F | inactive: 89%
O=C(NCCc1ccccc1)c1nn(-c2ccccc2Cl)nc1CO | inactive: 93%
COc1ccc(OC)c(NC(=O)CCNC(=O)Cn2cnc3ccccc3c2=O)c1 | inactive: 77%
CCOC(=O)c1c(N)n(-c2cc(C)cc(C)c2)c2nc3ccccc3nc12 | inactive: 57%

Compound | survival
COc1ccc(-c2nc3ccc(Cl)cn3c2Nc2ccc(C)cc2)cc1 | inactive: 55%
CCCCNC(=O)c1cn(C)c2ccc(S(=O)(=O)N3CCCC3)cc2c1=O | inactive: 139%
COc1ccc(OCC2c3cc(OC)c(OC)cc3CCN2C(=O)c2c(F)cccc2F)cc1 (stereo not drawn) | inactive: 112%
O=C1CCCc2c1[nH]c1ccccc21 | inactive: 97%
CCc1ccc(-n2nc(CO)c(C(=O)NCc3cccs3)n2)cc1 | inactive: 60%
Cc1cc2c(cc1S(=O)(=O)NCc1ccccc1Cl)OCC(=O)N2 | inactive: 84%
Cc1ccc(-n2ncc3c(Nc4cccc(C(F)(F)F)c4)ncnc32)cc1C | inactive: 83%
COc1cccc(-c2nc(CS(=O)(=O)CC(=O)NCCc3ccc(Cl)cc3)c(C)o2)c1 | inactive: 63%
Cc1cc(C)cc(NC(=O)COCc2cc(-c3ccc4c(c3)OCO4)on2)c1 | inactive: 55%
COc1cccc(N2CCN(C(=O)C3CCN(S(=O)(=O)c4cn(C)cn4)CC3)CC2)c1 | inactive: 144%
CCOCCn1c(=O)c2c(nc3n2CCN3c2ccc(C)c(C)c2)n(C)c1=O | inactive: 91%
CC1CCCCN1C(=O)CSc1c2c(nc3cc(Cl)ccc13)CCCC2 (stereo not drawn) | active: -6%
CC(C)c1ccc(NC(=O)c2cnc3sc(N4CCOCC4)nn3c2=O)cc1 | inactive: 98%
COc1ccc(OC)c(NC(=O)Cn2cnc3onc(-c4ccc(Cl)cc4)c3c2=O)c1 | inactive: 169%
COc1ccc(NC(=O)CN(C)S(=O)(=O)c2ccc3c(c2)c(=O)n(C)c(=O)n3C)cc1 | inactive: 130%
Cc1cc(C)n(-c2nc3ccccc3nc2Nc2cc(Cl)ccc2C)n1 | inactive: 130%
Cc1cc(NC(=O)Nc2nnc(N3CCCCC3)s2)ccc1Br | inactive: 74%
Cc1ccc(C(=O)N2CCN(Cc3cc(=O)n4nc(-c5ccccc5)sc4n3)CC2)cc1 | inactive: 55%

Reference: PubChem BioAssay AID463173 (ICCB-Longwood Screening Facility, Harvard Medical School, 2010)
